# From EPA's CvTdb concentration-time database
# The source gives many values for each of these; only a part stands here.
# Columns and labels:
# Assay in all cases: concentration in plasma after dosing
# Rat [1] = details: dosed: Dibromoacetic acid, 125 mg/kg, oral, Male, F344
# Rat [2] = details: dosed: Dibromoacetic acid, 50 mg/kg, oral, Male, Harlan Sprague Dawley
# Rat [3] = details: dosed: Dibromoacetic acid, 25 mg/kg, iv, Male, F344
# Rat [4] = details: dosed: Dibromoacetic acid, 125 mg/kg, oral, Male, F344; remark: listed apart in the source
# Rat [5] = details: dosed: Dibromoacetic acid, 25 mg/kg, iv, Male, F344; remark: listed apart in the source
# Rat [6] = details: dosed: Dibromoacetic acid, 50 mg/kg, oral, Male, Harlan Sprague Dawley; remark: listed apart in the source
# Rat [7] = details: dosed: Dibromoacetic acid, 25 mg/kg, iv, Male, F344; remark: listed apart in the source
# Rat [8] = details: dosed: Dibromoacetic acid, 25 mg/kg, iv, Female, F344
# Rat [9] = details: dosed: Dibromoacetic acid, 25 mg/kg, iv, Male, F344; remark: listed apart in the source
# Rat [10] = details: 5 min; dosed: Dibromoacetic acid; 125 mg/kg; oral; Male; F344
# Rat [11] = details: 0.5 h; dosed: Dibromoacetic acid; 25 mg/kg; iv; Male; F344
# Rat [12] = details: dosed: Dibromoacetic acid, 125 mg/kg, oral, Male, F344; remark: listed apart in the source
# Rat [13] = details: dosed: Dibromoacetic acid, 50 mg/kg, oral, Male, Harlan Sprague Dawley; remark: listed apart in the source
# Rat [14] = details: dosed: Dibromoacetic acid, 125 mg/kg, oral, Female, Harlan Sprague Dawley
# Rat [15] = details: 5 min; dosed: Dibromoacetic acid; 125 mg/kg; oral; Male; F344; remark: listed apart in the source
# Rat [16] = details: 0.5 h; dosed: Dibromoacetic acid; 50 mg/kg; oral; Male; Harlan Sprague Dawley
# Rat [17] = details: dosed: Dibromoacetic acid, 50 mg/kg, oral, Male, Harlan Sprague Dawley; remark: listed apart in the source
# Rat [18] = details: 6 h; dosed: Potassium Perfluorobutane Sulfonate; 20 mg/kg; oral; Male; Harlan Sprague Dawley
# Rat [19] = details: 6 h; dosed: Potassium Perfluorobutane Sulfonate; 20 mg/kg; oral; Male; Harlan Sprague Dawley; remark: listed apart in the source
# Rat [20] = details: dosed: Potassium Perfluorobutane Sulfonate, 4 mg/kg, oral, Female, Harlan Sprague Dawley
# Rat [21] = details: 1 h; dosed: Potassium Perfluorobutane Sulfonate; 100 mg/kg; oral; Female; Harlan Sprague Dawley
# Rat [22] = details: dosed: Potassium Perfluorobutane Sulfonate, 4 mg/kg, oral, Female, Harlan Sprague Dawley; remark: listed apart in the source
# Rat [23] = details: 1.5 h; dosed: Potassium Perfluorobutane Sulfonate; 100 mg/kg; oral; Female; Harlan Sprague Dawley
# Rat [24] = details: 0.5 h; dosed: Potassium Perfluorobutane Sulfonate; 20 mg/kg; oral; Female; Harlan Sprague Dawley
# Rat [25] = details: 0.75 h; dosed: Potassium Perfluorobutane Sulfonate; 20 mg/kg; oral; Female; Harlan Sprague Dawley
# Rat [26] = details: dosed: Potassium Perfluorobutane Sulfonate, 100 mg/kg, oral, Female, Harlan Sprague Dawley
# Rat [27] = details: dosed: Potassium Perfluorobutane Sulfonate, 100 mg/kg, oral, Female, Harlan Sprague Dawley; remark: listed apart in the source
# Rat [28] = details: 0.5 h; dosed: Potassium Perfluorobutane Sulfonate; 20 mg/kg; oral; Female; Harlan Sprague Dawley; remark: listed apart in the source
# Rat [29] = details: dosed: Potassium Perfluorobutane Sulfonate, 100 mg/kg, oral, Male, Harlan Sprague Dawley
# Rat [30] = details: 12 h; dosed: Potassium Perfluorobutane Sulfonate; 20 mg/kg; oral; Female; Harlan Sprague Dawley
# Rat [31] = details: dosed: Potassium Perfluorobutane Sulfonate, 100 mg/kg, oral, Female, Harlan Sprague Dawley; remark: listed apart in the source
# Rat [32] = details: dosed: Potassium Perfluorobutane Sulfonate, 100 mg/kg, oral, Male, Harlan Sprague Dawley; remark: listed apart in the source
# Rat [33] = details: dosed: Potassium Perfluorobutane Sulfonate, 4 mg/kg, oral, Female, Harlan Sprague Dawley; remark: listed apart in the source
# Rat [34] = details: dosed: Potassium Perfluorobutane Sulfonate, 4 mg/kg, oral, Female, Harlan Sprague Dawley; remark: listed apart in the source
# Rat [35] = details: dosed: Potassium Perfluorobutane Sulfonate, 100 mg/kg, oral, Male, Harlan Sprague Dawley; remark: listed apart in the source
# Rat [36] = details: 3 h; dosed: Potassium Perfluorobutane Sulfonate; 20 mg/kg; oral; Female; Harlan Sprague Dawley
structure (smiles),measurement,setting,value
O=C(O)C(Br)Br [Dibromoacetic acid],concentration in plasma,Rat [1]; 10 min,38900 ng/mL
same,concentration in plasma,Rat [1]; 8 h,136 ng/mL
same,concentration in plasma,Rat [2]; 1 h,21500 ng/mL
same,concentration in plasma,Rat [2]; 2 h,3390 ng/mL
same,concentration in plasma,Rat [3]; 2 min,81500 ng/mL
same,concentration in plasma,Rat [3]; 40 min,6510 ng/mL
same,concentration in plasma,Rat [4]; 20 min,61300 ng/mL
same,concentration in plasma,Rat [4]; 3 h,21700 ng/mL
same,concentration in plasma,Rat [5]; 0.2 h,29900 ng/mL
same,concentration in plasma,Rat [5]; 55 min,2500 ng/mL
same,concentration in plasma,Rat [6]; 20 min,42800 ng/mL
same,concentration in plasma,Rat [6]; 1.5 h,10000 ng/mL
same,concentration in plasma,Rat [7]; 20 min,21900 ng/mL
same,concentration in plasma,Rat [7]; 1 h,2560 ng/mL
same,concentration in plasma,Rat [8]; 0.2 h,29100 ng/mL
same,concentration in plasma,Rat [8]; 55 min,2750 ng/mL
same,concentration in plasma,Rat [9]; 0.2 h,27300 ng/mL
same,concentration in plasma,Rat [9]; 55 min,2620 ng/mL
same,concentration in plasma,Rat [10],45800 ng/mL
same,concentration in plasma,Rat [11],12200 ng/mL
same,concentration in plasma,Rat [12]; 1 h,72900 ng/mL
same,concentration in plasma,Rat [12]; 2 h,30800 ng/mL
same,concentration in plasma,Rat [13]; 0.75 h,24500 ng/mL
same,concentration in plasma,Rat [13]; 4 h,1440 ng/mL
same,concentration in plasma,Rat [14]; 20 min,70500 ng/mL
same,concentration in plasma,Rat [14]; 3 h,12400 ng/mL
same,concentration in plasma,Rat [15],45700 ng/mL
same,concentration in plasma,Rat [16],42200 ng/mL
same,concentration in plasma,Rat [17]; 0.75 h,25600 ng/mL
same,concentration in plasma,Rat [17]; 4 h,2020 ng/mL
O=S(=O)([O-])C(F)(F)C(F)(F)C(F)(F)C(F)(F)F.[K+] [Potassium Perfluorobutane Sulfonate],concentration in plasma,Rat [18],37600 ng/mL
same,concentration in plasma,Rat [19],36300 ng/mL
same,concentration in plasma,Rat [20]; 0.5 h,10300 ng/mL
same,concentration in plasma,Rat [20]; 9 h,45.4 ng/mL
same,concentration in plasma,Rat [21],125000 ng/mL
same,concentration in plasma,Rat [22]; 0.5 h,8090 ng/mL
same,concentration in plasma,Rat [22]; 9 h,38.3 ng/mL
same,concentration in plasma,Rat [23],83100 ng/mL
same,concentration in plasma,Rat [24],36600 ng/mL
same,concentration in plasma,Rat [25],43700 ng/mL
same,concentration in plasma,Rat [26]; 5 min,27700 ng/mL
same,concentration in plasma,Rat [26]; 3 h,95300 ng/mL
same,concentration in plasma,Rat [27]; 0.75 h,186000 ng/mL
same,concentration in plasma,Rat [27]; 12 h,366 ng/mL
same,concentration in plasma,Rat [28],39500 ng/mL
same,concentration in plasma,Rat [29]; 0.5 h,235000 ng/mL
same,concentration in plasma,Rat [29]; 9 h,42000 ng/mL
same,concentration in plasma,Rat [30],40.1 ng/mL
same,concentration in plasma,Rat [31]; 0.5 h,171000 ng/mL
same,concentration in plasma,Rat [31]; 9 h,887 ng/mL
same,concentration in plasma,Rat [32]; 0.75 h,181000 ng/mL
same,concentration in plasma,Rat [32]; 12 h,21500 ng/mL
same,concentration in plasma,Rat [33]; 0.75 h,11300 ng/mL
same,concentration in plasma,Rat [33]; 12 h,179 ng/mL
same,concentration in plasma,Rat [34]; 5 min,1070 ng/mL
same,concentration in plasma,Rat [34]; 3 h,4050 ng/mL
same,concentration in plasma,Rat [35]; 5 min,6140 ng/mL
same,concentration in plasma,Rat [35]; 3 h,151000 ng/mL
same,concentration in plasma,Rat [36],10100 ng/mL
